Source: PubChem BioAssay (NCI)
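In this assay, cells in 96-well plates receive the compound at five concentrations for 48 hours. Endpoints are linearly interpolated between the surrounding concentrations. The concentration for 50% growth inhibition is given as GI50. TGI marks complete inhibition of growth.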

system: NCI-H322M lung; experiment: NCI-60 cell line screen, 48 h

| SMILES | TGI [µM] | GI50 [µM] |
| --- | --- | --- |
| CC(=O)SCCC(NC(=S)Nc1ccccc1)P(=O)(Oc1ccccc1)Oc1ccccc1 (stereo not given) | > 100 |  |
| CCOC(=O)c1sc(=S)n(-c2ccc(Cl)cc2)c1-n1cc(-c2ccccc2)c(C#N)c1N | > 100 |  |
| Cc1ccc(S(=O)(=O)N=Nc2c(O)[nH]c3cc(O)c(C(=O)O)cc23)cc1 | > 100 |  |
| CCC(CC)NC1=C(NC(C)=O)C(=O)c2ccccc2C1=O | > 50 |  |
| N#CSCC(Cl)=CCl (mixture of isomers) | > 100 |  |
| COc1ccc2c(c1)C(=O)CCc1cc(OC)c(OC)c(OC)c1-2 | > 100 | < 0.01 |
| CCCC(C)c1ccc(OCCCCCCN2CCNCC2)cc1 (stereo not given) | 11.8 | 3.19 |
| Cc1cc(Cl)ccc1OCC(=O)Nc1nc2c(Cl)cccc2s1 | > 100 | > 100 |
| CC/C=C\C[C@H]1CC=C2C(=O)C=C[C@@H]2CC=CCCCC(=O)O[C@@H](CCCCC)CC=C2C(=O)C=C[C@@H]2CC=CCCCC(=O)O[C@@H](CCCCC)CC=C2C(=O)C=C[C@@H]2CC=CCCCC(=O)O[C@@H](CCCCC)CC=C2C(=O)C=C[C@@H]2CC=CCCCC(=O)O1 | > 7.9 | 4.32 |
| Cc1ccc2c(ccc(/C=C/c3ccc(O)c4ncccc34)[n+]2C)c1 | 24.9 |  |
| COc1ccc([C@@]2(O)c3c(ccc(O)c3OC)[C@H]2OC)c(OC)c1 | > 100 |  |
| COc1ccc(C2=C[C@]3(O)CCCN3C[C@@H]2c2ccc(OC)c(OC)c2)cc1 | 0.000354 |  |
| COC(=O)C1Cc2cc3c(cc2C1=O)CCC3 (stereo not given) | > 100 |  |
| CCCCCCCCn1ccc2cc(NC(=O)Cn3cc(CN4CCCCCC4)nn3)ccc21 | 3.15 | 1.69 |
| O=C1/C(=C/C=C/c2ccccc2)CCC1CNc1ccccc1 (stereo not given) | > 100 |  |
| C=CCCON(C(=O)OC(C)(C)C)c1ccccc1 | > 100 |  |
| O=C(c1ccccc1)c1ccc2n[se]nc2c1 | > 100 |  |
| O=C1CS(=O)(=O)C(c2cccc(Oc3ccccc3)c2)N1c1ccc(Cl)cc1 (stereo not given) | > 100 |  |
| CCCCCCCCCC[C@@H](OC(C)=O)[C@@H]1CC[C@@H]([C@@H]2CC[C@@H]([C@@H](O)CC#C/C=C/CCCCCCC[C@@]3(Sc4ccccc4)C[C@H](C)OC3=O)O2)O1 | > 10 |  |
| CC1(C)N=C(N)N=C(N)N1c1ccc(CCC(=O)Nc2ccc(S(=O)(=O)F)cc2)c(Cl)c1 | > 100 | 3.04 |
| CC(=O)Oc1cc2c(cc1OC(C)=O)C1(C)CCC2(C)c2cc(OC(C)=O)c(OC(C)=O)cc21 | > 100 |  |
| C=C(CCOC)CCC1CCCCC(CN(C)C)C1=O (stereo not given) | > 100 |  |
| Nc1ncnc2c1ncn2C1C=C(CO)C(O)C1O (stereo not given) | > 100 |  |
| C[C@@H](C(=O)O)N1C(c2ccco2)=C(/C(C=O)=C\c2ccco2)C(=O)/C1=C\c1ccco1 | > 100 |  |
| CN(C)Cc1cc(C(F)(F)F)ccc1C(O)(c1ccccc1)c1ccccc1 | 26.7 |  |

| SMILES | TGI [µM] | GI50 [µM] |
| --- | --- | --- |
| N#Cc1ccc(-c2nc3c(N)ncnc3o2)cc1 | > 100 |  |
| CCN1C[C@]2(C)CC[C@H](O)C34C1C(C[C@@H]32)[C@@]1(O)CC[C@H]2C[C@@H]4[C@@H]1[C@H]2O | > 100 |  |
| O=C(O)CCCc1ccc2ccc3ccccc3c2c1 | > 100 |  |
| CC(=O)C1C(c2ccccc2)C2(C)OC(=O)C(C#N)C12C (stereo not given) | > 100 |  |
| CCOc1cccc(/C=N/NC(=O)c2cccc(Nc3ccnc(C(F)(F)F)c3)c2)c1O | 61.2 | 0.55 |
| C=C(C)[C@@H]1CC[C@]2(COCCCN)CC[C@]3(C)[C@H](CC[C@@H]4[C@@](C)(CCCNCCCN)[C@H](C(=C)C)CC[C@]43C)[C@@H]12 | 2.9 | 1.56 |
| CN(/N=C/c1ccc(C(=O)O)cc1)C1=NCCCCN1 | > 100 |  |
| CCCOC(=O)N[C@H]1CCc2c(Cl)c(OC)c(OC)c(OC)c2-c2ccc(SC)c(=O)cc21 | > 100 | < 0.01 |
| CC(=O)OCC1OC(N2C(c3ccccc3)=CC(c3cccs3)C(C#N)=C2S)C(OC(C)=O)C(OC(C)=O)C1OC(C)=O (stereo not given) | > 100 |  |
| CN(C)/C=C/C(=CC=[N+](C)C)/C=C/N(C)C | > 100 |  |
| Nc1n[nH]c2cccc(C#Cc3cccc(NC(=O)c4cccc(C(F)(F)F)c4)c3)c12 | 14.4 | 4.18 |
| N#CCC(=O)N/N=C1/C(=O)N(c2ccc(Cl)cc2)C(=O)C(=O)C1c1nc2ccccc2s1 (stereo not given) | > 100 |  |
| ONC1=Nc2cc(Cl)ccc2C(=S)N2CSCC12 (stereo not given) | > 100 |  |
| O=C1COc2cc(NC(=S)Nc3ccccc3)ccc2N1 | > 100 |  |
| CS(=O)(=O)C(C#N)c1nc2ccccc2nc1Cl (stereo not given) | > 100 |  |
| COc1ccc2nc(N/N=C/c3sccc3C)cc(C)c2c1 | 69.3 |  |
| CC1(C)C2CCC1(C)C(N/C(Sc1ccccc1)=C(/C(Cl)=C(Cl)Cl)[N+](=O)[O-])C2 (stereo not given) | 39.7 |  |
| O=C(O)CO[C@@]12C#C/C=C\C#C[C@@H]3N(C(=O)Oc4ccccc4)c4ccccc4[C@]14O[C@@]34CCC2 | > 100 |  |
| CC(C)CCNC(=O)c1ccc(CNC(=O)/C=C/c2cccc(Oc3ccccc3)c2)cc1 | > 100 |  |
| OC(CC1CCCCN1)c1ccc2c(c1)oc1ccccc12 (stereo not given) | > 100 |  |
| O=c1oc(-c2ccccc2)cn1-c1ccccc1 | > 100 |  |
| NC(CCCC(N)P(=O)(O)O)P(=O)(O)O (stereo not given) | > 100 |  |
| CC1(c2cccc(C3CC4(CCC3=O)OCCCCO4)c2)OCCO1 (stereo not given) | > 100 |  |
| COc1ccc2c(c1)C(=O)/C(=C/c1cccc(OCC(=O)c3ccccc3)c1)O2 | 33.6 | 19.4 |
